Assay results as given in publication PMC4336329 (PLoS ONE, 2015).
About 2,200 (0.71%) of roughly 310,000 compounds showed an effect of 50% or more. The effect is printed as a negative number. The list shows a part of the results.

What follows are molecules tested against human ether-à-go-go-related gene (hERG) potassium channel (human, UniProt Q12809) (assay: primary screen, population patch clamp on CHO cells stably expressing hERG).
human ether-à-go-go-related gene (hERG) potassium channel, sequence (Q12809 whole entry, looked up): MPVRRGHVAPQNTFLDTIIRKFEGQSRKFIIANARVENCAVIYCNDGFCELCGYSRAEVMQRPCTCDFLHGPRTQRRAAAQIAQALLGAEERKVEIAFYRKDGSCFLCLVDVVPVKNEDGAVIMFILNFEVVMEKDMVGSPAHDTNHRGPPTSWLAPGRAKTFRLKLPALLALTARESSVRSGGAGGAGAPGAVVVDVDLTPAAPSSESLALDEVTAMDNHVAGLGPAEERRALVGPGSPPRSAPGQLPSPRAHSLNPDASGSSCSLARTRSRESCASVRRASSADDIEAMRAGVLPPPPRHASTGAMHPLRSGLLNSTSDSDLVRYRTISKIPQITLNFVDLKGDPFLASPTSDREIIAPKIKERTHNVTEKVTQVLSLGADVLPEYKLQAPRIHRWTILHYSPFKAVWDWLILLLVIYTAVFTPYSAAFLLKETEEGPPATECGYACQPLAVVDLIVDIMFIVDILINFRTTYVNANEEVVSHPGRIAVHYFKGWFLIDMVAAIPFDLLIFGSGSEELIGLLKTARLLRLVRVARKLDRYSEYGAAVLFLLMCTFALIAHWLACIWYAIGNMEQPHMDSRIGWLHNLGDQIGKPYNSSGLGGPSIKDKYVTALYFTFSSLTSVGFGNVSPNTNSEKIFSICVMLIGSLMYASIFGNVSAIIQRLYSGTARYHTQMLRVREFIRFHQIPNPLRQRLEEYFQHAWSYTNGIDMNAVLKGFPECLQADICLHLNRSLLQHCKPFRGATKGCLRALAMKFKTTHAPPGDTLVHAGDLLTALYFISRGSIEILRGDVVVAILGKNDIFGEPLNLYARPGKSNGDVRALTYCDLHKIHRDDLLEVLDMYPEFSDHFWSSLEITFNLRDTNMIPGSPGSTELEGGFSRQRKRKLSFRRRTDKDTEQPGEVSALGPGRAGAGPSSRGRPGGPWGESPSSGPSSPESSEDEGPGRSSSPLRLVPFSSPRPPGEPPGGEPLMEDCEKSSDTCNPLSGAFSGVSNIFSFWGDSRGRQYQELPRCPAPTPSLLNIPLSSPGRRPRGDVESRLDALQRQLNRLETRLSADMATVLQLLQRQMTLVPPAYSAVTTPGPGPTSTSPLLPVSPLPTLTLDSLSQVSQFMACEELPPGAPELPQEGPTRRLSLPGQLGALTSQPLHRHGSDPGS

Structure (SMILES) | hERG current change (%, negative = inhibition) at 1uM
O=C(Nc1ccn(Cc2ccccc2F)n1)c1ccc(COc2ccc(Br)cc2)cc1 | -2.55%
O=C(Cn1nnc(-c2ccc([N+](=O)[O-])cc2)n1)NNC(=O)c1ccccc1 | 16.9%
COC(=O)c1cc(NS(=O)(=O)c2ccc3c(c2)c(=O)n(C)c(=O)n3C)cc(C(=O)OC)c1 | 10.6%
Cc1nn(CC(=O)Nc2ccc(N3CCOCC3)cc2)c(C)c1Cl | 19.7%
CCOC(=O)c1c(NC(=O)CSc2n[nH]c(N)n2)sc(CC)c1C | 6.13%
COc1cccc(N2CCN(C(=O)CCCCCNc3nc(=S)[nH]c4ccccc34)CC2)c1 | 5.35%
CC(=O)c1c(C)[nH]c(C(=O)NCCc2cccc(C)c2)c1C | 6.72%
CN(C)CC(C)(C)CN=Cc1c(O)[nH]c2ccccc12 | 0.641%
CC(C)c1ccc(N(CC(=O)NCC2CCCO2)C(=O)CCC(=O)Nc2nccs2)cc1 (stereo not drawn) | 13.1%
CCOC(=O)/C=C/[C@H]1CCc2cccc(Cl)c2O1 | 14%
Cc1cc2sc3nc(=O)n(-c4ccccc4)c(=O)n3c2cc1C | 9.81%
CCOC(=O)CSc1nnc(CNC(=O)c2ccc(S(=O)(=O)N(C)C)cc2)n1C | 5.4%
Cl.N=c1sccn1CC(=O)Nc1ccccc1-c1ccccc1 | 5.08%
CCCNC(=O)c1ccc(N(Cc2ccccc2)S(C)(=O)=O)cc1 | -0.451%
Cc1nn(-c2ccccc2)c(N)c1C1(O)C(=O)Nc2ccc([N+](=O)[O-])cc21 (stereo not drawn) | 1.84%
N#C/C(=C\c1cccc(O)c1)c1nc2ccccc2o1 | 14.5%
Cc1cc(C)n(-c2nc3c(c(=O)[nH]c(=O)n3C)n2CC(O)COc2ccccc2C)n1 (stereo not drawn) | -13.3%
Cc1cccc(CCNS(=O)(=O)c2cnc[nH]2)c1 | -1.25%
Cc1cc2nc(C3CCCN(C(=S)Nc4ccccc4C)C3)[nH]c2cc1C (stereo not drawn) | 8.84%

Structure (SMILES) | hERG current change (%, negative = inhibition) at 1uM
CC(C)Oc1ccc(C2CC(=O)N(Nc3ccc([N+](=O)[O-])cc3[N+](=O)[O-])C2=O)cc1 (stereo not drawn) | 1.18%
O=C1Nc2ccccc2C1c1ncc(C(F)(F)F)cc1Cl (stereo not drawn) | 4.56%
CC(=O)Nc1ccc(OCC(=O)NCCc2ccccc2)cc1 | 7.94%
C/C=C/c1ccc(OCCCNC2CCCC2)c(OC)c1.O=C(O)C(=O)O | -22.2%
Nn1c(SCC(=O)N2CCN(S(=O)(=O)c3ccccc3)CC2)nnc1-c1cccs1 | 8.17%
CCc1cccc(C)c1NC(=S)N(CCCN1CCN(C)CC1)Cc1cccs1 | 9.35%
Cl.N=c1sccn1CC(=O)NCCc1ccc(Cl)cc1Cl | -7.67%
CC(C)Sc1n[nH]c(=O)n1-c1cccc(C(F)(F)F)c1 | 10.4%
CCN(CC)C(=O)C1CC(c2ccc(OC)cc2)=NO1 (stereo not drawn) | 13.9%
CCOC(=O)C1=C(COC(=O)CNC(=O)c2ccc(Cl)cc2Cl)NC(=O)NC1C (stereo not drawn) | 11.6%
Cc1cc(NCc2cccnc2)nc(N)n1 | 6.21%
C[C@]12CCC(=O)CC1CCC1C2CC[C@]2(C)C(OC(=O)CCC(=O)O)CCC12 (stereo partly drawn) | 9.84%
CC(NS(=O)(=O)c1ccc([N+](=O)[O-])cc1)C(=O)NN (stereo not drawn) | 13.7%
Cc1nonc1C(=O)N/N=C/c1ccc(O)c(O)c1 | 8.03%
COC(=O)Nc1nnc(-c2ccco2)s1 | 8.46%
Cc1ccc(NC(=O)CSc2nc3ncc(Br)cc3[nH]2)cc1C | 15.1%
Cc1cc(NC(=O)CCC(=O)N(c2ccccc2C)C(C(=O)NC2CCCC2)c2ccccc2)no1 (stereo not drawn) | 20.7%
CCCc1[nH]nc2c1C1(C(=O)N(C(C)C)c3ccccc31)C(C#N)=C(N)O2 (stereo not drawn) | 10.6%
CCCOC(=O)c1ccc(NS(=O)(=O)c2cccs2)cc1 | 8.05%

Structure (SMILES) | hERG current change (%, negative = inhibition) at 1uM
CCn1cc(/C=C(/C#N)S(=O)(=O)c2ccccc2)cn1 | 11.6%
CCn1c2ccccc2c2cc(CN3CCN(C(=O)c4ccco4)CC3)ccc21 | 15.9%
Nc1cccnc1Oc1ccc(F)cc1F | 12.8%
C=CCn1c(=NC(=O)CC)n(C)c2ccccc21.Cl | 2.21%
O=C(c1cn(-c2ccccc2)nc1-c1cccnc1)N1CCN(S(=O)(=O)c2ccccc2F)CC1 | -23.8%
Cc1cc(C)cc(NC(=O)C2CCN(c3nccs3)CC2)c1 | 6.42%
O=C(CSc1nnc2ccccn12)NNC(=O)c1ccc(F)cc1 | 16.3%
CC(=O)NCc1ccc(S(=O)(=O)NC(C(=O)O)C(C)C)cc1 (stereo not drawn) | 8.52%
CC(=O)N1CCN(CC(=O)Nc2cc(F)ccc2C)CC1 | 3.98%
Cc1cc(=O)oc2cc(OCC(=O)N3CCN(c4ccc(F)cc4)CC3)ccc12 | -2.46%
CSc1nc2nc3c(cc2c(=O)n1-c1ccccc1)COC(C)(C)C3 | 8.2%
CCOC(=O)N1CCN(C(=O)C(=O)Nc2sc3c(c2C(N)=O)CC(C)(C)OC3)CC1 | 19.2%
Cc1ccnc(NS(=O)(=O)c2cccc([N+](=O)[O-])c2)c1 | 10.8%
COc1ccccc1NC(=O)Cc1noc(CSc2n[nH]c(N)n2)n1 | 19.5%
Cc1ccc(C(=O)N2N=C(c3ccccc3O)CC2c2ccccc2)cc1 (stereo not drawn) | 7.78%
Cc1ccc(S(=O)(=O)CCC(=O)OCC(=O)NC2CCS(=O)(=O)C2)cc1 (stereo not drawn) | 8.32%
CCOC(=O)n1c(=O)oc2ccccc21 | 6.68%
CC(C)CN(CC(C)C)C(=S)Nc1ccc(Cl)cc1 | 6.61%
O=C1CCCN2N=C(SCC(=O)Nc3cccc(Cl)c3)SC2=N1 | 8.46%
